# Experimental data taken from publication PMC4336329 (PLoS ONE, 2015).
# Hit rate of the full screen: of about 310,000 compounds, about 2,200 (0.71%) showed an effect of 50% or more. The effect is printed as a negative number. The list shows a part of the results.
# Target: human ether-à-go-go-related gene (hERG) potassium channel (human, UniProt Q12809)
# Test: primary screen, population patch clamp on CHO cells stably expressing hERG
# Sequence of human ether-à-go-go-related gene (hERG) potassium channel (Q12809 whole entry, looked up): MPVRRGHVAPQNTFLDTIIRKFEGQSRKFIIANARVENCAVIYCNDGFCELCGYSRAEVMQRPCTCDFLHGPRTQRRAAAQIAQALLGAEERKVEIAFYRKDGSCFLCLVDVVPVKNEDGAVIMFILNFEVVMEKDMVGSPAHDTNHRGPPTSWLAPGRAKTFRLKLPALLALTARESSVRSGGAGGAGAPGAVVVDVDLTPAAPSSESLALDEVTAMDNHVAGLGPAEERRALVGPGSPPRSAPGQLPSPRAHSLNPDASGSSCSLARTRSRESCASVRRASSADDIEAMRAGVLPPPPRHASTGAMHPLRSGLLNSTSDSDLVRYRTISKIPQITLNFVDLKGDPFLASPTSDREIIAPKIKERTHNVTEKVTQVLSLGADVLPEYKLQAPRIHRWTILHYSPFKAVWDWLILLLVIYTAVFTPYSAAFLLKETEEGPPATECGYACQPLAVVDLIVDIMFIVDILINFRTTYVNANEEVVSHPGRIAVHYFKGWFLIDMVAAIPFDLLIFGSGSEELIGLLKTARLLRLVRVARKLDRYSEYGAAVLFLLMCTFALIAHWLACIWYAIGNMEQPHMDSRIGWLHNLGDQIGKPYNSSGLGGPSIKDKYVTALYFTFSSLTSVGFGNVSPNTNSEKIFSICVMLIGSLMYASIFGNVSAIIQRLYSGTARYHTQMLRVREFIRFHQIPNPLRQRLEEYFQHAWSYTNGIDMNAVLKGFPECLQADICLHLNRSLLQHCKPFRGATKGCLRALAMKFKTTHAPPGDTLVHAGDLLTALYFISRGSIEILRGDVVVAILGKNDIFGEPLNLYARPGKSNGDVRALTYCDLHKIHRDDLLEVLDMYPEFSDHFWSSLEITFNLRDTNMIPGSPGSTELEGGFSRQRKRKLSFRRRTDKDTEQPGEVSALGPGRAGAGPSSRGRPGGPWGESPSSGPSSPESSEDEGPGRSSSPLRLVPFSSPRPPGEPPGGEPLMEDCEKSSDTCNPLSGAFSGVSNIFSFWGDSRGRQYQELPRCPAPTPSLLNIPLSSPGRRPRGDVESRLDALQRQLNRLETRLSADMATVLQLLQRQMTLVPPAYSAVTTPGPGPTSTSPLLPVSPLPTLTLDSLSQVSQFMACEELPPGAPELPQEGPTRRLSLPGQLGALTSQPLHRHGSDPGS
row,SMILES,"hERG current change (%, negative = inhibition) at 1uM"
1,COc1cc(C(=O)N2CCN(C/C=C/c3ccccc3)CC2)cc(OC)c1OC,-2.2%
2,O=S(=O)(NCc1cccnc1)c1cccc2nsnc12,-2.07%
3,O=C(Nc1nc(-c2ccc3c(c2)OCO3)cs1)c1ccncc1,-0.919%
4,CCCC(=O)Nc1c(-c2ccccc2)c(=O)c(C)nn1-c1ccccc1,8.77%
5,C=CC1C(N2CCOCC2)C(C)(C)S1(=O)=O (centres unmarked),-1.66%
6,CCCCc1cc(=O)oc2cc(OCc3nn[nH]n3)ccc12,9.8%
7,Cc1ccc[n+](-c2[nH]c(=O)sc2/C=N/N=C(\[O-])CCn2c3ccccc3c3ccccc32)c1,12.8%
8,O=C(NCc1ccco1)C1CCN(C(=O)c2cc3sccc3n2Cc2ccc(Cl)cc2)CC1,-23.8%
9,O=C(CCc1nc2ccccc2c(=O)[nH]1)N1CCN(S(=O)(=O)c2ccccc2Br)CC1,-18.1%
10,CC(C)OP(=O)(OC(C)C)C(NCc1ccccc1)c1ccccc1.Cl (centres unmarked),-2.96%
11,O=c1c2ccccc2nc(SCc2ccc([N+](=O)[O-])cc2)n1-c1ccccc1,8.57%
12,COc1ccc(Cc2nnc3n2N=C(c2cc4ccccc4o2)CS3)cc1OC,-8.27%
13,CCN(CC(=O)NCc1ccncc1)S(=O)(=O)c1cc(Cl)ccc1Cl,1.73%
14,Cc1cc(C)c(N=C2SCC(=O)N2Cc2ccco2)c(C)c1,5.9%
15,COc1ccc(N(CC(=O)Nc2cccc3ccccc23)S(C)(=O)=O)c(OC)c1,8.31%
16,COC(=O)c1ccc(Cn2cc(C(F)(F)F)cc([N+](=O)[O-])c2=O)cc1,11.2%
17,c1ccc(-c2csc(-n3cnnn3)n2)cc1,-2.18%
18,CCOc1ccc(/C=N/NC(=O)c2cc3ccccc3cc2OC)cc1,5.44%
19,Cc1cc(C)n(C(C)CNS(=O)(=O)c2ccc(Cl)cc2)n1 (centres unmarked),10.9%
20,O=C(Nc1c(-c2ccc(F)cc2)nc2ccccn12)c1ccc(F)cc1,-4.64%
21,CCC(=O)Nc1nc(C)c(C(=O)NC2CCCCC2)s1,8.31%
22,CCC(NC(=O)c1ccncc1)c1ccccc1 (centres unmarked),7.44%

row,SMILES,"hERG current change (%, negative = inhibition) at 1uM"
1,COc1cc(/C=C(\NC(=O)c2ccccc2)C(=O)NC(C(=O)O)c2ccccc2)cc(OC)c1OC (centres unmarked),6.11%
2,COc1cc(OC)c(OC)cc1CNCCSc1nnnn1C.Cl,7.84%
3,C[n+]1cc(-c2ccccc2)n2c1CCCCC2.[I-],4.28%
4,O=C(O/N=C1/CCCc2occc21)c1ccc(Cl)cc1Cl,8.54%
5,COc1ccc(/C=N/NC(=O)c2ccc(NC(=O)c3ccccc3Br)cc2)cc1,21.5%
6,CC(CC(=O)NC1CCCCC1)S(=O)(=O)c1ccc2c(c1)NC(=O)CO2 (centres unmarked),12.7%
7,CCOc1cccc(OCCNC2CCCC2)c1.O=C(O)C(=O)O,11.2%
8,CCN(CC)CCCNC(=S)N(CCCO)Cc1cc2cc3c(cc2[nH]c1=O)OCO3,16.4%
9,O=C(COC(=O)/C=C/c1ccc([N+](=O)[O-])cc1)NCc1ccc2c(c1)OCO2,17%
10,CCCC(=O)Nc1ccccc1Sc1ncnc2scc(-c3ccccc3)c12,9.6%
11,Cc1cc(=O)[nH]c(SCc2ccccc2)n1,16.9%
12,COc1ccc(-c2cc(=O)oc3c(O)c(O)ccc23)cc1,7.35%
13,C/C=C/C(=O)OCC(=O)Nc1cc([N+](=O)[O-])ccc1Cl,0.866%
14,O=C(COc1ccccc1)Nc1ccncc1,6.32%
15,C[n+]1ccccc1/C=C/c1ccccc1Cl.[I-],16.5%
16,CCOC(=O)C1=C(N)N(c2ccc(C)cc2)C2=C(C(=O)CCC2)C1c1cccs1 (centres unmarked),4.51%
17,O=[N+]([O-])c1ccc(/C=[N+](\[O-])[C@@H]2CCCC[C@@H]2/[N+]([O-])=C/c2ccc([N+](=O)[O-])o2)o1,-3.05%
18,CCOC(=O)c1c(C)nsc1NC(=O)C1CCCCC1,13.4%
19,CCC1CCCCN1C(=O)c1noc(C(C)C)c1[N+](=O)[O-] (centres unmarked),11.3%
20,Cc1ccccc1CS(=O)(=O)Cc1ccc(C(=O)NCCc2ccccc2)o1,16.6%
21,CCc1ccc(N(C(=O)c2csnn2)C(C(=O)NC2CCCC2)c2cccnc2)cc1 (centres unmarked),0.538%
22,COC(=O)C1=C(CN2CCN(C)CC2)NC(=O)NC1c1cc(C)ccc1C (centres unmarked),-4.52%

row,SMILES,"hERG current change (%, negative = inhibition) at 1uM"
1,COc1ccccc1C(=O)Nn1cnc2ccccc2c1=O,18.3%
2,COc1ccccc1CCNC(=O)CNC(=O)c1ccc2ccccc2c1,8.57%
3,CCC(C)NC(=S)N1CCN(Cc2ccc3c(c2)OCO3)CC1.O=C(O)C(=O)O (centres unmarked),-1.01%
4,CCc1ccccc1N(CC(=O)N1CCCC1)S(C)(=O)=O,14.8%
5,C/C=C(\C)C(=O)NCCN1C2=NC[C@H](C)N2C[C@@H]1Cc1ccc(OC)cc1,7.75%
6,CCN(CC)CCNC(=O)C(=O)Nc1cc2c3c(c1)CCC(=O)N3CCC2,22.5%
7,CC(=O)[C@@H]1[C@@H]2C(=O)N(c3ccccc3F)C(=O)[C@@H]2[C@H]2c3ccccc3C=NN12,2.45%
8,CC(C)OCCCNC(=O)CN1C(=O)CC(C)(C)S(=O)(=O)c2ccccc21,11.7%
9,O=C(c1nc2ccc(Cl)cn2c1CN1CCCC(CO)C1)N1CCc2ccccc2C1 (centres unmarked),-3.34%
10,CCOC(=O)c1c(C)[nH]c(C(=O)CN(C)CC(=O)Nc2ccccc2Cl)c1C,8.34%
11,Cc1nn(CC(=O)N2CCN(c3ccccc3)CC2)c(C)c1[N+](=O)[O-],8.06%
12,CC(=O)C1=C(O)C(=O)N(CCN2CCOCC2)C1c1ccccc1 (centres unmarked),9.49%
13,CCc1cc2c(=O)c(-c3cnn(-c4ccccc4)c3)c(C)oc2c(CN2CCCCC2)c1O,1.37%
14,COc1ccc([C@@H]2C[C@@H](c3ccccc3)Oc3c(C)ccc(C(C)C)c32)cc1,13.7%
15,O=C(COC(=O)COc1ccccc1)NCc1ccccc1,10.8%
16,Cc1cc(C)c2c(-n3cccc3)c(C(=O)NNS(=O)(=O)c3ccc(F)cc3)sc2n1,-1.19%
17,O=C(Cc1ccccc1)Nc1ccc(S(=O)(=O)N2CCOCC2)cc1,8.76%
18,COc1ccc(/C=C2\SC(=S)N(CC(=O)N3CCN(C)CC3)C2=O)cc1,14.2%
19,CC(=O)c1ccc(S(=O)(=O)N2CCn3cccc3C2C)cc1 (centres unmarked),22.9%
20,CCOc1ccc(C(=O)NCc2ccc3c(c2)OCO3)cc1OCC,14.6%
21,Cc1ccc(NC(=O)NNC(=O)c2ccc3c(c2)NC(=O)C(C)(C)O3)cc1,8.21%
22,O=C(NCCc1nc2ccccc2[nH]1)/C(=C/c1ccco1)NC(=O)c1ccco1,13%

row,SMILES,"hERG current change (%, negative = inhibition) at 1uM"
1,NC(=O)CSc1nnc(COc2ccccc2)n1CCc1ccccc1,-9.5%
2,CCCSc1nc2cc(C)c(C)cc2n1CC(C)O (centres unmarked),10.7%
3,O=C(Cn1cc(SCc2cccc(Cl)c2)c2ccccc21)N1CCOCC1,-3.16%
4,CC(C)c1ccc(C(=O)NC(=S)Nc2ccc3[nH]c(=O)[nH]c3c2)cc1,0.524%
5,CCNC(=O)n1cc(-n2cncn2)c(-c2ccc(Cl)cc2)n1,-11.8%
6,COc1ccc(CCNC(=O)C2CC3Cn4c(nc5cc6ccccc6cc54)C3N2C)cc1 (centres unmarked),2.44%
7,O=C(CSc1nnc(CNC(=O)c2cccc(C(F)(F)F)c2)o1)NC1CCCCC1,9.71%
8,CCn1c(CSCc2ccc(F)cc2)nnc1SCC(=O)NCc1ccccc1,-4.37%
9,CCOC(=O)c1c(C)[nH]c(C(=O)COC(=O)c2oc3ccc(OC)cc3c2C)c1C,19.3%
10,CCN(CC)c1ccc(NC(=O)c2cnc3ccccn3c2=O)c(C)c1,5.71%
11,CCOc1ccc(-n2c(SC(C)C(=O)OC)nc3c(c2=O)SCC3)cc1 (centres unmarked),7.36%
12,COC(=O)/C=c1/s/c(=C(/C#N)C(=O)N2CCOCC2)n(-c2ccccc2)c1=O,20.9%
13,O=C(Cn1nnc(-c2ccccc2F)n1)NCCc1ccccc1,8.4%
14,COc1cc(NC(=O)CN(C)C2CCCCC2)c(C)cc1[N+](=O)[O-],6.09%
15,CCc1nc(SCC(=O)Nc2ccccc2C(=O)OC)n[nH]1,9.59%
16,CCOC(=O)c1c(C)[nH]c(C(=O)CN2C(=O)NC(C)(c3ccc(C)cc3)C2=O)c1C (centres unmarked),13.6%
17,CCOc1ccc(N(CC(=O)Nc2c(C)n(C)n(-c3ccccc3)c2=O)S(=O)(=O)c2ccc(F)cc2)cc1,-8.79%
18,COc1cc(C(=O)NCc2nnc(SCC(=O)NC3CCCCC3)o2)cc(OC)c1OC,14.8%
19,Cc1ccc2c(c1)N(CC(=O)N1CCCC1)C(=O)C(C)O2 (centres unmarked),22.1%
20,COc1ccc(-c2oc3ccccc3c2C(=O)Oc2ccccc2)cc1,15.4%
